The source of these data is publication PMC3650583, “Dissection of Pilus Tip Assembly by the FimD Usher Monomer” (Journal of Molecular Biology, 2013).

For the test, the target named is T1, FimD usher (Escherichia coli (uropathogenic), UniProt P30130 46-878).
T1 construct: also called apo FimD; the usher; source: in 0.05% DDM
T1 sequence: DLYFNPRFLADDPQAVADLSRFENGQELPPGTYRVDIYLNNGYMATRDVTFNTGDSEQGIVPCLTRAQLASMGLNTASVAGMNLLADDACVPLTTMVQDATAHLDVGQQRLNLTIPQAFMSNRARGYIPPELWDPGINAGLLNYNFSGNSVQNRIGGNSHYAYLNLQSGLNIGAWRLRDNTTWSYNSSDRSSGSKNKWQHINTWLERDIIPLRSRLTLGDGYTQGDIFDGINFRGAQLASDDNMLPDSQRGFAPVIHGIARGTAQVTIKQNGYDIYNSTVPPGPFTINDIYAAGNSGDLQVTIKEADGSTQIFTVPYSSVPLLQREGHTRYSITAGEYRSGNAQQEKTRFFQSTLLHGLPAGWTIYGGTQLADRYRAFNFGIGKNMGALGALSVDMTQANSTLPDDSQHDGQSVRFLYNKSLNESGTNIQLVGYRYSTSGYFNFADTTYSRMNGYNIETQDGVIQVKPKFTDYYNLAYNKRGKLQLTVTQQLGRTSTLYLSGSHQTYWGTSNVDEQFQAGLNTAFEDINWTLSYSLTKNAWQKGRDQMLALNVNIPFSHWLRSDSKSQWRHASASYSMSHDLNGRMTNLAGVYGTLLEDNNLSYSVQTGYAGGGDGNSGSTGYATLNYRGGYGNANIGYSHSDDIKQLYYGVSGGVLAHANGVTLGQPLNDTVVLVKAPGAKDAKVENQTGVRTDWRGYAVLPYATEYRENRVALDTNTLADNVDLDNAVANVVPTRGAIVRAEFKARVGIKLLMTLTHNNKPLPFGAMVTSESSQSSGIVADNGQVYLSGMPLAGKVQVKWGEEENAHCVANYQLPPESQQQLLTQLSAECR
The experiment in a line: AUC; sedimentation velocity of purified FimD:FimC:FimH at the higher concentrations (> 1 μM, up to 4.3 μM); 20 °C, 42,000 rpm, absorbance optics; 50 mM Tris pH 8.0, 150 mM NaCl, 1 mM EDTA, 0.05% DDM; c(s) by SedFit; Kd of usher dimerisation (dimer to monomers) estimated by integrating the monomer and dimer peaks at 4.3 μM. Particulars: both partners purified.

B1: FimC:FimH chaperone:adhesin complex (complex)
chain 1: GVALGATRVIYPAGQKQEQLAVTNNDENSTYLIQSWVENADGVKDGRFIVTPPLFAMKGKKENTLRILDATNNQLPQDRESLFWMNVKAIPSMDKSKLTENTLQLAIISRIKLYYRPAKLALPPDQAAEKLRFRRSANSLTLINPTPYYLTVTELNAGTRVLENALVPPMGESTVKLPSDAGSNITYRTINDYGALTPKMTGVME
chain 2: [no letters for about 300 residues]
notes: also called chaperone:subunit complex
In the case of B1, the binding result is “binds”.
